The results in this text go back to PubChem BioAssay AID463173 (ICCB-Longwood Screening Facility, Harvard Medical School, 2010).

Each structure is given as a SMILES string. Screen size: about 52,000 compounds; about 1,700 (3.3%) were called active. Rule as the data show it: active = survival mostly below about 52% (no sharp cut-off); inactive = mostly above about 56%. This is one part of the list.

This assay has as its system Wild type. The assay can be described thus: growth inhibition of S. aureus wild type versus tarO mutant, primary screen, teichoic acid synthesis inhibitors, RN4220, OD600 (AID 463173). The settings on record: S. aureus RN4220 wild type/DeltatarO growth, OD600, 18 h, active compounds read low, screened at 18.75 µg/mL (by protocol).
For `O=C(Cn1c2ncccc2c(=O)n1-c1ccccc1)NCc1ccccc1`, the survival is inactive: 80%. To `O=C(NCc1ccccc1Cl)c1cc(-c2ccccc2)n[nH]1` belongs inactive: 74%. With `COCCn1c(CCC(=O)Nc2ccc(OC)c(OC)c2)nc2cccnc21`, the survival was inactive: 90%. As to `Cc1ccc(NC(=O)c2ccc(F)c(S(=O)(=O)NCCc3ccccc3)c2)cc1F`, the survival is inactive: 99%. The value for `COc1cccc(C(=O)CS)c1` was inactive: 105%; that for `Cc1nc(-c2ccccc2)sc1-c1ccc(SCC(=O)Nc2ccccc2)nn1` was inactive: 41%. In the case of `Cc1ccc(NC(=O)CSc2nc(C)cc(C)c2C#N)cc1`, the survival is inactive: 99%.

As to `COc1cccc(CNC(=O)Cc2c(C)c3cc4c(C)coc4cc3oc2=O)c1`, the survival is inactive: 86%. `CCc1ccc(NC(=O)N2CCN(c3nnc(C)c4c(C)n(-c5ccc(Cl)cc5)nc34)CC2)cc1`: the survival is inactive: 128%. Regarding `COc1cccc(NC(=O)c2csc3c2CCCCC3)c1`, the survival was inactive: 26%. As to `Cc1cc(C)cc(NC(=O)CSc2nccn2C2CCCC2)c1`, the survival is inactive: 71%. In the case of `c1ccc(Nc2c(-c3ccccc3)nc3ncccn23)cc1`, the survival was inactive: 78%. To `O=C(CCNS(=O)(=O)c1ccc(Br)s1)Nc1ccc(Br)cc1` belongs inactive: 78%; to `CCN1C(=O)SC(CC(=O)O)C1=O` (stereo not drawn), inactive: 99%; to `CN(CC(=O)N1CCCC1=O)Cc1ccccc1`, inactive: 102%. With `Cc1ccc(CNCc2ccc3c(c2)n(C)c(=O)n3C)cc1`, the survival was inactive: 87%. The value for `COc1ccc(CN(C(=O)Nc2cc(C)ccc2C)C2CCN(C(C)=O)CC2)cc1` was inactive: 76%; that for `COc1cc(NS(=O)(=O)c2ccc(NC(=O)COc3ccc(Cl)cc3Cl)cc2)nc(OC)n1` was inactive: 93%. With `CCOc1cccc(CC(=O)NCc2ccc3c(c2)CCN3C(=O)c2cccc(C)c2)c1OCC`, the survival was inactive: 95%.

As to `COc1ccc2c(c1)c(=O)c(S(=O)(=O)c1ccc(F)cc1)cn2CC(=O)Nc1ccc(C)cc1C`, the survival is inactive: 87%. Regarding `CCN1C(=O)c2ccccc2Sc2ccc(NC(=O)Cc3ccc(OC)c(OC)c3)cc21`, the survival is inactive: 89%.

For the compound `COc1ccc(CNC(=O)c2cnc3sc4cc(OC)ccc4n3c2=O)cc1`, the survival was inactive: 81%. Take `O=C(NCc1ccccc1Cl)C(=O)NCC(c1ccc2c(c1)OCO2)N1CCOCC1` (stereo not drawn): the survival was inactive: 84%. To `CN1C(=O)c2ccccc2N(C)C1c1ccc(F)cc1` (stereo not drawn) belongs inactive: 113%; to `CCOc1ccccc1N(CC)C(=O)Cn1ncc2c1-c1ccccc1OC2`, inactive: 71%. The value for `CCOc1ccc(NC(=O)CSc2nc(-c3ccccc3)c3cc(OCC)ccc3n2)cc1` was inactive: 85%. As to `CCOc1ccc2nc(N(Cc3cccnc3)C(=O)c3ccco3)sc2c1`, the survival was inactive: 69%.

Turning to `O=C(c1cc(S(=O)(=O)N2CCCC2)c[nH]1)N1CCN(c2cccc(Cl)c2)CC1`, the survival is inactive: 109%. The value for `O=C(CSc1nc2ccccc2c(=O)n1Cc1ccco1)OC1CCCCC1` was inactive: 108%; that for `CCC(CC)C(=O)N1CCc2cc(OC)c(OC)cc2C1COc1ccc2c(C)cc(=O)oc2c1` (stereo not drawn) was inactive: 71%. With `CCCSc1ncc(Cl)c(C(=O)NCc2ccc(C)cc2)n1`, the survival is inactive: 85%. As for `COc1ccc(CNC(=O)CCS(=O)(=O)c2cc3c4c(c2)CCN4C(=O)CC3)cc1OC`, the survival was inactive: 65%.

As to `Cc1ccc(S(=O)(=O)N(CCO)Cc2ccccc2)cc1`, the survival is inactive: 105%.

On to `Cc1cc(Cl)ccc1NC(=O)CCS(=O)(=O)c1ccc2c(c1)CC(C)N2C(=O)C1CC1` (stereo not drawn), for which the survival is inactive: 131%. For `CCOC(=O)c1c(C)[nH]c(CCC(=O)NCc2cc(Br)ccc2OC)c1C`, the survival is inactive: 115%. With `COc1ccc(C2C(C(=O)Nc3cccnc3)=C(C)Nc3nc(-c4ccc(OC)c(OC)c4)nn32)cc1` (stereo not drawn), the survival was inactive: 143%. To `O=C(Nc1cc(Cl)ccc1O)c1cc(-c2ccc3c(c2)OCO3)on1` belongs inactive: 101%.

For `Cc1c(C(=O)N2CCCC2)oc2c1-c1nn(CC(=O)NCc3ccccc3F)cc1CC2`, the survival is inactive: 90%. Take `CCN(C(=O)CSc1nnc(-c2ccccc2Br)o1)c1nc(C)cs1`: the survival is inactive: 116%. To `CCc1nn2c(=O)c(S(=O)(=O)Nc3ccc(C)cc3C)c(C)nc2s1` belongs inactive: 75%. Take `COc1ccc(-c2nc(CSCC(=O)NCCc3ccc(OC)c(OC)c3)c(C)o2)cc1`: the survival is inactive: 85%. To `Cc1sc(NC(=O)C2c3ccccc3Oc3ccccc32)c(C(=O)OC(C)C)c1C` belongs inactive: 62%; to `Cc1ccc(S(=O)(=O)c2nnn3c2nc(N(C)Cc2ccccc2)c2cc(Cl)ccc23)cc1C`, inactive: 125%. For `COc1ccccc1CNC(=O)c1cc2cccc3c2n1CCS3`, the survival was inactive: 78%. The value for `CCCCCc1nc2ccccc2c(=O)n1N` was inactive: 115%; that for `CC(C)NC(=O)C1=CC(c2ccc3c(c2)OCO3)=NS(=O)(=O)N1C` was inactive: 87%. In the case of `Cc1cc(NCCN(C)C)n2nc(C)c(-c3ccccc3)c2n1`, the survival is inactive: 110%.

Regarding `COc1ccc(-c2nnn(CC(=O)N(Cc3ccco3)C(C(=O)NCC3CCCO3)c3ccco3)n2)cc1` (stereo not drawn), the survival is inactive: 107%. The value for `CC1CCN(c2nc3ccccc3nc2SCC(=O)Nc2ccccc2C(C)C)CC1` was active: -16%.

On to `CCCN1CCN(c2ncnc3sc(C(=O)Nc4ccc(OC(F)(F)F)cc4)c(C)c23)CC1`, for which the survival is inactive: 83%. Turning to `Cc1nnc(N2CCCC(C(=O)Nc3cc(F)ccc3F)C2)c2nn(-c3ccccc3)c(C)c12` (stereo not drawn), the survival was inactive: 89%. The value for `CCCCC(=O)OCc1cc(=O)n2nc(C3CC3)sc2n1` was inactive: 135%.

Regarding `CCCCN(CC)CCCNC(=O)c1ccc2c(c1)N(Cc1ccc(C)cc1)C(=O)c1ccccc1S2`, the survival was inactive: 87%. Turning to `O=C(CS(=O)(=O)c1cccc2nsnc12)N1CCN(c2ccc(F)cc2)CC1`, the survival was inactive: 97%.

Regarding `CC(=O)c1ccc(NC(=O)Cn2c(=O)nc(-c3ccccc3)c3ccccc32)cc1`, the survival is inactive: 70%. Take `COc1cc(NC(=O)COCc2cc(-c3ccc4c(c3)OCO4)on2)c(OC)cc1Cl`: the survival is inactive: 101%. Take `CCOc1ccc(C(=O)c2cn(CC(=O)Nc3ccc(C)c(Cl)c3)c3ccc(OCC)cc3c2=O)cc1`: the survival is inactive: 90%. Turning to `CCOc1ccc(CCNC(=O)c2cc3n(n2)CCCN(Cc2ccc(C)cc2)C3=O)cc1OCC`, the survival is inactive: 118%.
